# In PubChem BioAssay AID588453 (National Center for Advancing Translational Sciences (NCATS), 2011):
# Where “and” joins values, the source holds several entries; their conditions need not be identical. Identical values can stand only once. The campaign covered roughly 390,000 compounds. About 4,000 (1%) were called active. The inconclusive results got no clear call from the source; some entries with a clear call stand among them for comparison. The call rests on the fitted dose curve; in most records, active means well fitted inhibition curve with a large enough effect; inconclusive means small, poorly fitted or top-dose-only effect; inactive means no such curve, though single readings can be large or run the other way. Potencies beside an inconclusive call are fits to weak or partial responses and may not hold up.
# Target: Thioredoxin reductase 1, cytoplasmic (Rattus norvegicus) (UniProt O89049)
# Assay: qHTS Assay for Inhibitors of Mammalian Selenoprotein Thioredoxin Reductase 1 (TrxR1): qHTS; further: nearly all actives have a fitted effect of over 65% in size
# Details: recombinant rTrxR1, NADPH fluorescence consumption, selenite substrate; series mostly up to 114 µM; activity change, negative = inhibition: at the top concentration
# Outline: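 Rat TrxR1 (90 nM in the dispensed reagent) was pre-reduced with 400 uM NADPH for 5 min at room temperature, then incubated with compound for 15 min. After 400 uM selenite was added, NADPH fluorescence (Ex 340/Em 450 nm) was followed for 8 min.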
# On the % scale 0 is the no-effect control and ±100 the full control effect; potency means the concentration at half of the fitted maximal effect; tags describe the fitted curve by direction and shape.
# Sequence of UniProt O89049 (O89049 whole entry, looked up): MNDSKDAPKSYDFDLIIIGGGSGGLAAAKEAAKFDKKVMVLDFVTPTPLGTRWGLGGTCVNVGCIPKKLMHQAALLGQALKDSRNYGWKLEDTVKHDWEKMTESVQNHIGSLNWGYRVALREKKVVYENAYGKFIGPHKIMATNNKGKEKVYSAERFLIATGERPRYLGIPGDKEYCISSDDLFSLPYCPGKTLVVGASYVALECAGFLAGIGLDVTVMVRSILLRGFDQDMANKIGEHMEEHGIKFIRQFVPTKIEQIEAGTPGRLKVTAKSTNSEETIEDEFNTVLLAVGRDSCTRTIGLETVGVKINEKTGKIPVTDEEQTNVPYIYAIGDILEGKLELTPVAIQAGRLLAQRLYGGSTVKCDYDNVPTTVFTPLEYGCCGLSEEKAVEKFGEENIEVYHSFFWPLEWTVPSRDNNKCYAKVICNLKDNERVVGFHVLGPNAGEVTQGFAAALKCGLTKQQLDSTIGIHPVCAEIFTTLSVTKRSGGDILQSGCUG
SMILES,Potency,"activity change, negative = inhibition"
O=C(NC(=S)Nc1ccc(N2CCCCC2)cc1)c1cccs1,"inconclusive: 20 µM [inhibitor, full curve]",–
CSCCC(NC(=O)OC(C)(C)C)C(=O)Oc1ccc2c(=O)c(-c3ccc4c(c3)OCCO4)coc2c1 (configuration not stated),"inconclusive: 14.1 µM [inhibitor, partial curve, poor fit]",–
O=C(Nc1nnc(-c2cccs2)o1)c1cccc(C(F)(F)F)c1,–,inactive: 0.587%
COc1ccccc1OC(C)C(=O)N1CCC(c2nc3ccccc3s2)CC1 (configuration not stated),–,inactive: 13.1%
CC1CCCCC1NC(=O)CSC1=Nc2ccccc2C2CC=NN12 (configuration not stated),"inconclusive: 44.7 µM [inhibitor, partial curve]",–
COc1ccc(NC(=O)c2cnc3sc(N4CCOCC4)nn3c2=O)c(OC)c1,–,inactive: 26.8% [at 57.1 µM]
Cc1ccc2[nH]c(C)c(CC(=O)O)c2c1,–,inactive: -22.9%
COc1cc(/C=C(\C#N)C(=O)NC2CCCCC2C)ccc1OS(=O)(=O)c1ccc(C)cc1 (configuration not stated),"inconclusive: 79.4 µM [inhibitor, single point]",–
O=C(OCC(=O)N1CCCC1=O)c1nc(Cl)c(Cl)c(Cl)c1Cl,"inconclusive: 79.4 µM [inhibitor, single point]",–
CC(/C=N/Nc1nc2ccccc2[nH]1)=C\c1ccccc1,"inconclusive: 56.2 µM [inhibitor, partial curve, poor fit]",–
CCOC(=O)C1=C(CSc2nc3c(cc2C#N)CN(C)CC3)OC(N)=C(C#N)C1c1ccncc1 (configuration not stated),"inconclusive: 44.7 µM [inhibitor, partial curve, poor fit]",–
CCOC(=O)C1CCCN(c2oc(-c3ccc(OC)cc3)nc2C#N)C1 (configuration not stated),"inconclusive: 89.1 µM [inhibitor, partial curve, poor fit]",–
O=C(CNC(=O)c1ccccc1O)N/N=C/c1cc(Br)ccc1OC(=O)/C=C/c1ccco1,"inconclusive: 70.8 µM [inhibitor, partial curve]",–
CC(=O)c1c(N2CCCCC2)nc(=S)n(Cc2ccccc2)c1C,–,inactive: 17.8%
S=c1nc(-c2cc(Cl)ccc2Cl)[nH][nH]1,"inconclusive: 28.2 µM [inhibitor, partial curve]",–
Cc1ccc(/C=C/C(=O)Nc2nccs2)o1,active: 44.7 µM,–
Clc1ccc2[nH]c3c(NCCCN4CCOCC4)ncnc3c2c1,–,inactive: 4.53%
CCN1C(=O)/C(=C2/C=Cc3cc(C)ccc3N2CC)N(C)C1=S,"inconclusive: 79.4 µM [inhibitor, partial curve, poor fit]",–
Cc1ccc(N(CN2C(=O)C3CC=CCC3C2=O)C(=O)c2ccco2)cc1Cl (configuration not stated),active: 14.1 µM,–
CCOC(=O)C1Nc2ccc(C(=O)O)cc2C2C=CCC12 (configuration not stated),active: 11.2 µM,–
CC(=O)N1CN(CCCn2ccnc2)Cc2c1sc1c2CCCC1,–,inactive: 8.66% [at 57.1 µM]
CCOC(=O)C1C(=O)C=C(c2ccc(OC)cc2)CC1c1ccco1 (configuration not stated),"inconclusive: 89.1 µM [inhibitor, partial curve, poor fit]",–
Cc1cc(-c2csc(N)n2)c(C)n1C,"inconclusive: 17.8 µM [inhibitor, partial curve, poor fit]",–
CC(C)(C)CN1C(=O)C(=O)NC[C@H]1Cc1ccc(O)cc1,–,inactive: 9.25%

SMILES,Potency,"activity change, negative = inhibition"
COc1ccc(-n2cc(-c3ccccc3)c3c(N4CCOCC4)ncnc32)cc1,–,inactive: 49.2%
COc1ccc(NC(=O)CN(C2CCCCC2)S(C)(=O)=O)cc1OC,"inconclusive: 8.91 µM [inhibitor, single point]",–
O=C(c1ccco1)N1CCN(C(=O)C2CCN(S(=O)(=O)c3cccs3)CC2)CC1,"inconclusive: 39.8 µM [inhibitor, partial curve]",–
O=C1OC(c2cccs2)=N/C1=C\c1ccc(-c2ccccc2Cl)o1,"inconclusive: 79.4 µM [inhibitor, single point]",–
O=C(CCCC(=O)N(CC(=O)NC1CCCCC1)c1ccc(F)cc1)Nc1ccccn1,"inconclusive: 89.1 µM [inhibitor, partial curve, poor fit]",–
COc1ccc2[nH]c(=O)c(CN(Cc3nnnn3Cc3ccco3)C3CCCCC3)cc2c1,active: 17.8 µM,–
Cc1nnc(NC(=O)CSc2ccc(-c3ccco3)nn2)s1,active: 17.8 µM,–
Cc1cc(Cl)ccc1NC(=S)NCCC(c1ccccc1)c1ccccc1,–,inactive: -20.2%
COc1cc2c(cc1OC)C1Cc3ccc(OC)c(OC)c3CN1CC2 (configuration not stated),–,inactive: 5.68%
COc1ccc(/C=N/Nc2nc3ccccc3[nH]2)cc1OC,–,inactive: -16.8%
CCc1ccc(NCCC(=O)c2ccc(Cl)cc2)cc1,"inconclusive: 15.8 µM [inhibitor, single point]",–
CN(C)Cc1c(O)ccc2c1O/C(=C\C=C\c1ccccc1)C2=O,active: 79.4 µM,–
OC(c1ccccn1)c1c[nH]c2ccccc12 (configuration not stated),"inconclusive: 89.1 µM [inhibitor, single point]",–
O=C(Nc1ccc(-c2ccc(N3CCCCC3)nn2)cc1)c1ccco1,"inconclusive: 44.7 µM [inhibitor, single point]",–
Oc1ccc(/C=C/c2cc(O)cc(O)c2)cc1,"inconclusive: 23.8 µM [inhibitor, partial curve, poor fit] and inconclusive: 18.9 µM [inhibitor, single point]",–
Cc1cc(C(=O)N/N=C2\CC(=O)c3ccccc32)c(C)n1-c1ccc(F)cc1,"inconclusive: 79.4 µM [inhibitor, partial curve, poor fit]",–
O=C(O)c1cccc(N2C(=O)/C(=C/c3ccc(SCc4ccc(Cl)cc4)o3)SC2=S)c1,"inconclusive: 70.8 µM [inhibitor, single point]",–
COc1ccc(N/C(C)=C/C(=S)Nc2ccccc2)cc1,"inconclusive: 31.6 µM [inhibitor, single point]",–
O=S(=O)(c1ccc(=S)[nH]c1)N1CCCCC1,"inconclusive: 0.891 µM [inhibitor, full curve, poor fit]",–
CC1(OC(=O)C2CCCC2)C(=O)C=C2C=C(c3ccsc3)N(C3CCCC3)C=C2C1=O (configuration not stated),"inconclusive: 89.1 µM [inhibitor, single point]",–
COc1cc(C=c2c3ccccc3n3c2cc(-c2ccccc2)[n+]3C)cc(OC)c1OC,active: 50.1 µM,–
COc1ccc2nc(SCc3ccccc3C)nc(C)c2c1,–,inactive: 44.6%
COc1ccc(S(=O)(=O)n2nc(OC(=O)c3ccco3)cc2N)cc1,"inconclusive: 10 µM [inhibitor, partial curve, poor fit]",–
CCOC(=O)c1ccc(NC2SC(=O)N(Cc3cccc(C(=O)O)c3)C2=O)cc1 (configuration not stated),active: 79.4 µM,–

SMILES,Potency,"activity change, negative = inhibition"
COCCNC(=O)Cn1cc(C(=S)N2CCCCC2)c2ccccc21,–,inactive: 3.98%
CC12CCC=CC1C(c1ccc(F)c(Br)c1)N(Cc1ccccc1)C2=O (configuration not stated),"inconclusive: 25.1 µM [inhibitor, single point]",–
CCN1CCN(c2cc(C)c3cc(NC(=S)N4CCN(c5ccccc5)CC4)ccc3n2)CC1,–,inactive: 18.1%
CC(=O)N/C(=C/c1ccc2c(c1)OCO2)C(=O)NCCO,"inconclusive: 56.2 µM [inhibitor, partial curve, poor fit]",–
Cc1ccc(-c2cc(-c3ccc(F)cc3)c(C#N)c(N)n2)o1,active: 15.8 µM,–
COc1ccccc1NC(=O)CSc1ccc(-c2cccs2)nn1,–,inactive: 24.2% [at 57.1 µM]
COc1ccc(/C=C/C(=O)NC2CCCCCC2)cc1S(=O)(=O)N1CCOCC1,"inconclusive: 31.6 µM [inhibitor, single point]",–
COc1cc(C(c2nnnn2C2CCCC2)N2CCc3ccccc3C2)ccc1O (configuration not stated),active: 2 µM,–
COc1cccc2c(=S)c(CCC(C)=O)c(C)[nH]c12,"inconclusive: 56.2 µM [inhibitor, partial curve, poor fit]",–
CCOC(=O)c1c[nH]c2c(C)ccc(Cl)c2c1=O,–,inactive: 21.9% [at 57.1 µM]
O=C(NCc1ccco1)C1CCCCN1S(=O)(=O)c1ccc(F)cc1 (configuration not stated),"inconclusive: 50.1 µM [inhibitor, partial curve]",–
O=C(Cc1ccc(Br)cc1)Nc1ccccc1N1CCCC1,"inconclusive: 89.1 µM [inhibitor, single point]",–
COc1ccc(C(=O)NC(=S)NCc2ccco2)cc1Br,"inconclusive: 79.4 µM [inhibitor, single point]",–
Cc1cc(NS(=O)(=O)c2ccccc2)cc(Cl)c1O,"inconclusive: 100 µM [inhibitor, single point]",–
Oc1ccc(Br)cc1-c1cc(-c2ccco2)[nH]n1,–,inactive: 7.54% [at 57.1 µM]
O=C(CCS(=O)(=O)c1ccccc1)Nc1ncc([N+](=O)[O-])s1,"inconclusive: 15.8 µM [inhibitor, full curve]",–
Cc1ccc(OC(=O)NC2CCS(=O)(=O)C2)cc1C (configuration not stated),–,inactive: -11.1% [at 57.1 µM]
Cc1cccc(NC(c2ccc(O)cc2)c2ccc3ccc(C)nc3c2O)n1 (configuration not stated),"inconclusive: 0.158 µM [inhibitor, full curve, poor fit]",–
Cc1ccc2c(c1)c1c3n2CCN(C(=O)CCl)C3CCC1 (configuration not stated),active: 7.94 µM,–
O=C(Nc1ccc(F)cc1F)c1ccc2c(O)c(S(=O)(=O)c3ccc(Cl)cc3)c(=O)[nH]c2c1,–,inactive: -12.4%
Cc1ccc(OC(=O)COc2ccccc2)c(-n2nc3ccccc3n2)c1,–,inactive: -6.14%
CC(C)[C@H](NS(=O)(=O)c1cccc(Cl)c1)C(=O)OCC(=O)N1CCN(c2ccccc2)CC1,"inconclusive: 44.7 µM [inhibitor, partial curve]",–
COc1cc(/C=C/C(C)=NNc2ccccc2)ccc1O,"inconclusive: 56.2 µM [inhibitor, partial curve]",–
Cc1ccc(-c2ccc(CCC(=O)O)n2-c2ccc(C(=O)O)cc2)cc1,"inconclusive: 22.4 µM [inhibitor, single point]",–
